Experimental data as given in the supplement of paper PMC4166925.
± gives the standard deviation of the averaged measurements. Whole data set: some 33,000 sequences, median “E-score (dimensionless, -0.5 to 0.5)” near -0.049, cut for the highest 2% near 0.37. Some of the results follow.

System: T1, PmTbr T-box DNA-binding domain (GST fusion)
T1 sequence: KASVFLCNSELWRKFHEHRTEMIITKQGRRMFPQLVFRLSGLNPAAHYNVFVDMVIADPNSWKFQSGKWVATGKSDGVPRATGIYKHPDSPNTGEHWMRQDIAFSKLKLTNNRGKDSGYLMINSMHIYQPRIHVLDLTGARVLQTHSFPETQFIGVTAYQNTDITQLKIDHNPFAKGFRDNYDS
Experiment: PBM E-score of 8-mer (E-score (dimensionless, -0.5 to 0.5)); Tbr is Tbrain of the sea star Patiria miniata (Pm) or the sea urchin Strongylocentrotus purpuratus (Sp); higher = stronger binding preference; most listed sequences are background and not binding sites
Conditions: the construct has about 5 more residues each side
Summary of the method: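 GST-fused Tbr T-box DNA-binding domains (the whole T-box plus about five flanking residues) were expressed in BL21 E. coli at 20 °C and purified by glutathione affinity chromatography. Universal Agilent oligonucleotide arrays were made double-stranded by primer extension, incubated with 200 nM protein in PBS (pH 7.5), then scanned and quantified. Every ungapped 8-mer was scored from probe intensities. The Universal PBM Analysis Suite gave each word an enrichment E-score, averaged over duplicate arrays.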

Sequence	PBM E-score of 8-mer
TAGCTTCA	0.0195 ± 0.042
AGCTGACG	0.117 ± 0.011
ATATTCTA	-0.0286 ± 0.013
CTACTTCC	-0.204 ± 0.057
TAGTGATA	0.245 ± 0.035
CGAGGTAC	-0.1003 ± 0.00044
AAATGGGC	0.0759 ± 0.0097
CATATGTA	-0.109 ± 0.0059
CTGTCCTC	-0.0314 ± 0.051
GACGTAGC	-0.168 ± 0.026
ACGCTACG	0.0353 ± 0.01
GTCAGGTA	0.0624 ± 0.013
ATAGAGCA	-0.184 ± 0.078
GTATGTGA	0.22 ± 0.044
CGTAAACA	0.155 ± 0.03
ACACCCAG	0.339 ± 0.021
TCCCTTCA	0.102 ± 0.043
AACATCGG	-0.21 ± 0.035
AATAAGGG	-0.19 ± 0.032
CTATCCAA	-0.333 ± 0.077
GGCACCTA	0.412 ± 0.006
AGCATCTA	-0.0258 ± 0.033

Sequence	PBM E-score of 8-mer
CACATCGG	0.284 ± 0.015
AAACATTG	-0.0327 ± 0.00054
AGTAATTC	-0.1366 ± 0.00053
AGTCGAGC	0.0378 ± 0.032
AGAGAATA	-0.0684 ± 0.049
GTGCATTA	-0.00588 ± 0.016
GCAGCCTA	0.167 ± 0.073
TGTATACA	-0.276 ± 0.051
CGAATCCA	-0.0509 ± 0.0035
ATTTAAGC	-0.191 ± 0.065
ACTTTGAC	0.111 ± 0.0052
ATGAAGCA	-0.0951 ± 0.0093
ACTAGAAA	-0.177 ± 0.0096
AACCCAAC	0.0239 ± 0.013
GATTCCTA	-0.238 ± 0.055
TAGTCCCA	-0.27 ± 0.046
CATTAGCG	0.189 ± 0.014
AGCGCATG	-0.118 ± 0.031
AGAGATGA	-0.046 ± 0.098
AGCAGAAA	-0.0429 ± 0.043
ATGCTCAG	-0.141 ± 0.056
CTCAATAC	-0.265 ± 0.027

Sequence	PBM E-score of 8-mer
GTTCATGA	-0.122 ± 0.064
CATTTTGC	-0.00766 ± 0.017
CATCAACC	-0.196 ± 0.03
GGTCAACA	0.123 ± 0.0043
AACCAGCG	0.0116 ± 0.051
AGGGATAC	-0.319 ± 0.026
GTTGCTGA	0.0831 ± 0.0053
CCTTTTCC	0.00333 ± 0.0028
ACAAACAC	0.203 ± 0.025
AAACGAAC	0.02851 ± 0.00012
CGCTACCA	0.243 ± 0.024
GGAGATGA	-0.119 ± 0.023
TACGAGCA	-0.105 ± 0.018
GGTGATGA	0.343 ± 0.028
CAACACCA	0.392 ± 0.015
AGTCACGA	0.0948 ± 0.067
CCGGAGGC	-0.189 ± 0.097
CTCTCACA	0.3481 ± 0.0026
CGTTACTA	0.0165 ± 0.0058
CTGTGAGA	0.314 ± 0.0081
AAGCGCTC	-0.124 ± 0.013
GTGTGCCA	0.237 ± 0.025

Sequence	PBM E-score of 8-mer
AAGTCAAT	-0.196 ± 0.035
ATTATCCG	-0.0296 ± 0.042
ATTCCTAC	-0.269 ± 0.065
AAGACCGA	-0.165 ± 0.03
AGCGCTAT	0.0936 ± 0.018
GCAGTTCA	-0.17 ± 0.079
CGTTCTGA	-0.208 ± 0.056
CCGGGTTA	-0.275 ± 0.013
AGAACTCG	0.0872 ± 0.055
CAGGTTTC	-0.0284 ± 0.064
CTCATTCC	0.0476 ± 0.034
ACATACCA	0.144 ± 0.04
GGTCGGGA	-0.147 ± 0.05
CCGGATCG	-0.0164 ± 0.013
ACGTAACT	-0.0679 ± 0.011
AACGTTAT	-0.0689 ± 0.1
ATTGCGGG	-0.101 ± 0.024
AGTATTTG	-0.0153 ± 0.051
GATGACGC	0.195 ± 0.0088
AGAGCAAC	-0.135 ± 0.026
GAAAGACA	-0.129 ± 0.061
CGCATGGC	-0.0622 ± 0.09

Sequence	PBM E-score of 8-mer
CGGCAATC	0.00788 ± 0.053
TAGTAACA	0.0969 ± 0.045
AAATTGTA	-0.213 ± 0.025
GCAGCTTA	-0.0556 ± 0.0013
ACGAGTTA	0.111 ± 0.032
CCCCAAGA	-0.104 ± 0.019
AATGCCTC	-0.145 ± 0.012
CAGCCGTC	-0.0449 ± 0.12
ATTGTATG	-0.0862 ± 0.042
CGCTATTC	0.104 ± 0.0044
ATACCGCC	0.0278 ± 0.0085
ATCTGGCC	-0.345 ± 0.013
GTCTTGTA	-0.159 ± 0.026
TAATTGCA	-0.0324 ± 0.06
GTCTAGAC	-0.223 ± 0.085
CCTCCCAC	0.119 ± 0.033
TAATGGTA	-0.0259 ± 0.032
GTAAGTAC	-0.00138 ± 0.0093
CTTATGCA	-0.135 ± 0.047
ACCAAATC	0.0778 ± 0.041
AGATTACC	-0.262 ± 0.051
AGGTTCTC	0.0874 ± 0.028
